From the supplement of paper PMC8813932
Where a name gives a salt, the structure may show the parent alone. This is one part of the list. Single values are uncertain, as repeats are few or missing.

system: Ov4Cis; test: log2 surviving fraction relative to plate median (drug vs vehicle, or drug+dl922-947 vs dl922-947 alone); ovarian cancer lines: OVCAR4 is platinum-sensitive while Ov4Cis resists cisplatin and Ov4Carbo carboplatin; higher = more cell survival; conditions: dl922-947 oncolytic adenovirus co-treatment: MOI 10; compound concentration: 10 uM; 192 h

Row | Compound | log2 surviving fraction
1 | N=C(N)c1ccc(N=NNc2ccc(C(=N)N)cc2)cc1 [Diminazene Aceturate] | -0.223
2 | Nc1cccc2c1CN(C1CCC(=O)NC1=O)C2=O (stereo not given) [Lenalidomide] | 1.41
3 | CCC(=O)O[C@@H](O[P@](=O)(CCCCc1ccccc1)CC(=O)N1C[C@H](C2CCCCC2)C[C@H]1C(=O)O)C(C)C [Fosinopril sodium (Monopril)] | 0.105
4 | CC1(C)S[C@@H]2[C@H](NC(=O)[C@H](N)c3ccccc3)C(=O)N2[C@H]1C(=O)O [Ampicillin Trihydrate] | -0.31
5 | CC[C@H]1OC(=O)C[C@@H](O)[C@H](C)[C@@H](O[C@@H]2O[C@H](C)[C@@H](O)[C@H](N(C)C)[C@H]2O)[C@@H](CCN2C[C@H](C)C[C@H](C)C2)C[C@@H](C)C(=O)/C=C/C(C)=C/[C@@H]1CO[C@@H]1O[C@H](C)[C@@H](O)[C@@H](OC)[C@H]1OC [Tilmicosin] | 0.0977
6 | CN/C(=N\CCSCc1nc[nH]c1C)NC#N [Cimetidine (Tagamet)] | 0.485
7 | CC(C)C(=O)Nc1ccc([N+](=O)[O-])c(C(F)(F)F)c1 [Flutamide (Eulexin)] | 0.0246
8 | CCCOc1ccc(C(=O)OCCN(CC)CC)cc1N [Proparacaine HCl] | -0.595
9 | C=CCc1cc(OC)c(O)c(C(=O)NCCO)c1 [Alibendol] | 1.57
10 | Cn1c(CNc2ccc(C(=N)N)cc2)nc2cc(C(=O)N(CCC(=O)O)c3ccccn3)ccc21 [BIBR 953 (Dabigatran etexilate, Pradaxa)] | 0.0188
11 | CC(C)OC(=O)C(C(=O)OC(C)C)=C1SC=CS1 [Malotilate] | 0.253
12 | CN(C)CCOc1ccc(/C(=C(/CCCl)c2ccccc2)c2ccccc2)cc1 [Toremifene Citrate (Fareston, Acapodene)] | -4.76
13 | C[C@@H]1CCC[C@H](C)N1NC(=O)c1ccc(Cl)c(S(N)(=O)=O)c1 [Clopamide] | 0.0851
14 | CC(=O)OC[C@H]1O[C@@H]([S-])[C@H](OC(C)=O)[C@@H](OC(C)=O)[C@@H]1OC(C)=O.CCP(CC)CC.[Au+] [Auranofin] | -9.76
15 | CN(C(=O)CN(CCO)CC(=O)N(C)C(C)(C)Cc1ccccc1)C(C)(C)Cc1ccccc1 [Oxethazaine] | -5.97
16 | CCC[C@@H]1C[C@@H](C(=O)N[C@@H]([C@H]2O[C@H](SC)[C@H](O)[C@@H](O)[C@H]2O)[C@@H](C)O)N(C)C1 [Lincomycin hydrochloride (Lincocin)] | 0.892
17 | CC12CC3CC(C)(C1)CC(N)(C3)C2 [Memantine HCl (Namenda)] | -0.787
18 | Cc1cccc(C(C)c2c[nH]cn2)c1C (stereo not given) [Medetomidine HCl] | 0.979
19 | O=C(O)CCNC(=O)c1ccccc1 [Betamipron] | 0.326
20 | C[C@H](CS)C(=O)N1CCC[C@H]1C(=O)O [Captopril (Capoten)] | -0.216
21 | C[C@@H](O)[C@H]1C(=O)N2C(C(=O)O)=C(S[C@@H]3CN[C@H](C(=O)N(C)C)C3)[C@H](C)[C@H]12 [Meropenem] | -0.413
22 | CN(C/C=C/C#CC(C)(C)C)Cc1cccc2ccccc12 [Terbinafine hydrochloride (Lamisil)] | 1.36
23 | Nc1ncnc2c1ncn2[C@@H]1O[C@H](COP(=O)(O)OP(=O)(O)OP(=O)(O)O)[C@@H](O)[C@H]1O [ATP (Adenosine-Triphosphate)] | 0.18
24 | NC(=O)c1cnccn1 [Pyrazinamide (Pyrazinoic acid amide)] | -0.406
25 | Cc1ccccc1C(=O)Nc1ccc(C(=O)N2CCCC(O)c3cc(Cl)ccc32)c(C)c1 (stereo not given) | -1.38
26 | CCC[C@H](NC(=O)[C@@H]1[C@H]2CCC[C@H]2CN1C(=O)[C@@H](NC(=O)[C@@H](NC(=O)c1cnccn1)C1CCCCC1)C(C)(C)C)C(=O)C(=O)NC1CC1 [Telaprevir (VX-950)] | -0.811
27 | O=C1C(O)=C([C@H]2CC[C@H](c3ccc(Cl)cc3)CC2)C(=O)c2ccccc21 [Atovaquone (Atavaquone)] | -0.212
28 | CC(C)(C#N)c1cc(Cn2cncn2)cc(C(C)(C)C#N)c1 [Anastrozole] | 0.0306
29 | CS(=O)(=O)CCNCc1ccc(-c2ccc3ncnc(Nc4ccc(OCc5cccc(F)c5)c(Cl)c4)c3c2)o1 [Lapatinib] | -7.31
30 | CC[C@H](C)[C@H](N)C1=N[C@H](C(=O)N[C@@H](CC(C)C)C(=O)N[C@H](CCC(=O)[O-])C(=O)N[C@H](C(=O)N[C@H]2CCCCNC(=O)[C@H](CC(N)=O)NC(=O)[C@@H](CC(=O)[O-])NC(=O)[C@H](Cc3cnc[nH]3)NC(=O)[C@@H](Cc3ccccc3)NC(=O)[C@H]([C@@H](C)CC)NC(=O)[C@@H](CCCN)NC2=O)[C@@H](C)CC)CS1.[Zn+2] [Bacitracin zinc] | 0.0616
